Results: PubChem BioAssay AID463173 (ICCB-Longwood Screening Facility, Harvard Medical School, 2010)
Out of some 52,000 compounds screened, about 1,700 (3.3%) were called active. No stated cut-off is given here; in the data, active means survival mostly below about 52% (no sharp cut-off); inactive means mostly above about 56%. The list shows a part of the results.

These molecules were tested on Wild type (assay: S. aureus survival, RN4220 and DeltatarO strains – OD600, teichoic acid synthesis inhibitors, primary screen (AID 463173)). Conditions: S. aureus RN4220 wild type/DeltatarO growth, OD600, 18 h, stronger effect = lower value, screened at 18.75 µg/mL (by protocol).
For `CCOc1ccc2nc(NCCNC(=O)NCc3ccccc3)c(C#N)cc2c1`, the survival was inactive: 107%.
In the case of `Cc1nc(-n2nc(C)c(CCC(C)C)c2C)sc1C(=O)Nc1cccc(Cl)c1`, the survival is reported as inactive: 146%.
`Clc1ccc(NCc2nc3ccccc3n2CCOc2ccccc2)cc1` was tested, and the survival was inactive: 74%.
With `COc1ccc(Cl)cc1NC(=O)Cn1c(=O)c2ccccc2n2nncc12` the survival was inactive: 68%.
With `CC1(C)Cc2ccccc2C(N/N=C/c2ccncc2)=N1` the survival was inactive: 99%.
For `CCC(C(=O)Nc1ccc(C)c(Cl)c1)n1c(=O)c(-c2ccccc2NC(C)=O)nc2ccccc21` (stereo not given), the survival was inactive: 54%.
`Cc1cccc(C)c1NC(=O)c1sc(-n2nc(C)c(Cc3ccc4c(c3)OCO4)c2C)nc1C` was tested, and the survival was inactive: 124%.
With `COc1cc(CNCCSc2nnnn2C)ccc1OCc1ccc(Cl)cc1Cl` the survival was active: 0%.
In the case of `Cc1ccc(NC(=O)Cn2nc3c(cc2=O)CCCC3)cc1Cl`, the survival is reported as inactive: 74%.
In the case of `CCN(C(=O)CSc1nc2ccccc2nc1Cc1ccc(F)cc1)c1cccc(C)c1`, the survival is reported as inactive: 88%.
`COc1ccc2nc(SC)nc(C)c2c1` was tested, and the survival was inactive: 107%.
In the case of `COc1ccc(NC(=O)C2CCC(CNS(=O)(=O)c3ccc(Br)s3)CC2)c(OC)c1` (stereo not given), the survival is reported as inactive: 83%.
For `CC(C)CC(C(=O)NCC1CCN(Cc2ccc(F)cc2)CC1)N1Cc2ccccc2C1=O` (stereo not given), the survival was inactive: 78%.
With `CCc1ccc(NC(=O)Cn2cc(S(=O)(=O)c3ccc(F)cc3)c(=O)c3cc(OC)ccc32)cc1` the survival was inactive: 81%.
In the case of `CC(=O)c1ccc(NC(=O)CCc2c(C)nn(-c3ccc4nnc(C)n4n3)c2C)cc1`, the survival is reported as inactive: 71%.
With `O=C(O)CCN1CCCC1` the survival was inactive: 113%.
In the case of `COc1cc(NC(=O)N2CCC(CN3CCCCCC3)CC2)cc(OC)c1OC`, the survival is reported as inactive: 63%.
With `CCOC(=O)C1(Cc2ccc(O)cc2)NC(c2ccco2)C2C(=O)N(c3ccccc3F)C(=O)C21` (stereo not given) the survival was inactive: 120%.
In the case of `CCc1nc(-c2ccc(C)c(S(=O)(=O)N3CCN(c4ccc(C(C)=O)cc4)CC3)c2)no1`, the survival is reported as inactive: 73%.
With `O=C(c1ccc2c(c1)OCCO2)C1CCCCC1` the survival was inactive: 101%.
In the case of `Cc1ccccc1C(=O)N1c2ncnn2C2(CCCCC2)[C@@H]2CCCC[C@@H]21`, the survival is reported as inactive: 82%.
In the case of `O=C(O)c1ccc(OCOc2ccc(C(=O)O)c(C(=O)O)c2)cc1C(=O)O`, the survival is reported as inactive: 102%.
With `Cc1ccccc1Cn1c(=O)n(CCC(=O)NCc2ccco2)c(=O)c2sccc21` the survival was inactive: 87%.
In the case of `COC(=O)C1=C(C)N(C(C)C)C(=O)C1(NC(=O)c1ccc(C(C)(C)C)cc1)C(F)(F)F` (stereo not given), the survival is reported as inactive: 65%.
In the case of `CC(C)Nc1nc2c(-c3cccc(Br)c3)nnn2c2ccccc12`, the survival is reported as inactive: 74%.
